Results from US6727076B2 (priority 1995, dated 2004).
The name of at least one read-out is uncertain. Peptide text beside a SMILES is read from it.

How the values were obtained:
Format in all cases: cell-based
[1] = system: E. coli strain 6321 (MG1655)
[2] = system: E. coli strain 14444 (MG1655 xylA)
[3] = system: E. coli strain 6322 (EMG2 (K12, λF+)); further: key: '+' indicates that the organism tested was capable of utilizing the carbon source listed; '−' indicates that the organism tested was not capable of utilizing the carbon source listed; 'w' indicates weak positive reactions
[4] = system: E. coli strain 14443 (MG1655 (FB426)); further: key: '+' indicates that the organism tested was capable of utilizing the carbon source listed; '−' indicates that the organism tested was not capable of utilizing the carbon source listed; 'w' indicates weak positive reactions
[5] = system: E. coli strain 11547 (O157:H7)
[6] = system: E. coli strain 6320 (W3110); further: key: '+' indicates that the organism tested was capable of utilizing the carbon source listed; '−' indicates that the organism tested was not capable of utilizing the carbon source listed; 'w' indicates weak positive reactions
[7] = system: E. coli strain 13671 (O157:H? gur+)
[8] = system: E. coli strain 13675 (O157)
[9] = system: E. coli strain 13673 (O157)
[10] = system: E. coli strain 14445 (MG1655 himA); further: key: '+' indicates that the organism tested was capable of utilizing the carbon source listed; '−' indicates that the organism tested was not capable of utilizing the carbon source listed; 'w' indicates weak positive reactions

SMILES: OC[C@H]1O[C@H](O[C@H]2[C@H](O)[C@@H](O)[C@H](O)O[C@@H]2CO)[C@H](O)[C@@H](O)[C@@H]1O [Maltose]
- carbon source utilization [1]: +
- carbon source utilization [2]: −
- carbon source utilization [3]: +
- carbon source utilization [4]: +
- carbon source utilization [5]: +
- carbon source utilization [6]: +
- carbon source utilization [7]: +
- carbon source utilization [8]: +
- carbon source utilization [9]: +
- carbon source utilization [10]: −

SMILES: O=C(O)CCC(=O)C(=O)O [α-ketoglutaric acid]
- carbon source utilization [1]: +
- carbon source utilization [2]: +
- carbon source utilization [3]: +
- carbon source utilization [4]: +
- carbon source utilization [5]: −
- carbon source utilization [6]: +
- carbon source utilization [7]: +
- carbon source utilization [8]: +
- carbon source utilization [9]: +
- carbon source utilization [10]: +

SMILES: O=c1ccn([C@@H]2O[C@H](CO)[C@@H](O)[C@H]2O)c(=O)[nH]1 [Uridine]
- carbon source utilization [1]: +
- carbon source utilization [2]: +
- carbon source utilization [3]: +
- carbon source utilization [4]: +
- carbon source utilization [5]: +
- carbon source utilization [6]: +
- carbon source utilization [7]: +
- carbon source utilization [8]: +
- carbon source utilization [9]: +
- carbon source utilization [10]: +

SMILES: O=C(O)Cc1cccc(O)c1 [M-hydroxyphenyl acetic acid]
- carbon source utilization [1]: −
- carbon source utilization [2]: −
- carbon source utilization [3]: −
- carbon source utilization [4]: −
- carbon source utilization [5]: −
- carbon source utilization [6]: −
- carbon source utilization [7]: −
- carbon source utilization [8]: −
- carbon source utilization [9]: −
- carbon source utilization [10]: −

SMILES: NCC(=O)N[C@@H](CC(=O)O)C(=O)O [Glycyl-L-aspartic acid] (H-Gly-Asp-OH)
- carbon source utilization [1]: +
- carbon source utilization [2]: +
- carbon source utilization [3]: +
- carbon source utilization [4]: +
- carbon source utilization [5]: +
- carbon source utilization [6]: +
- carbon source utilization [7]: +
- carbon source utilization [8]: +
- carbon source utilization [9]: +
- carbon source utilization [10]: +

SMILES: NCC(=O)N[C@@H](CCC(=O)O)C(=O)O [Glycyl-L-glutamic acid] (H-Gly-Glu-OH)
- carbon source utilization [1]: +
- carbon source utilization [2]: +
- carbon source utilization [3]: +
- carbon source utilization [4]: +
- carbon source utilization [5]: +
- carbon source utilization [6]: +
- carbon source utilization [7]: +
- carbon source utilization [8]: +
- carbon source utilization [9]: +
- carbon source utilization [10]: +

SMILES: O=CC(=O)O [Glyoxylic acid]
- carbon source utilization [1]: +
- carbon source utilization [3]: +
- carbon source utilization [5]: +
- carbon source utilization [6]: +
- carbon source utilization [7]: −
- carbon source utilization [8]: −
- carbon source utilization [9]: −

SMILES: NC(=O)[C@@H](O)[C@@H](O)[C@H](O)[C@@H](O)C=O [Glucuronamide]
- carbon source utilization [1]: +
- carbon source utilization [2]: +
- carbon source utilization [3]: +
- carbon source utilization [4]: +
- carbon source utilization [5]: +
- carbon source utilization [6]: +
- carbon source utilization [7]: +
- carbon source utilization [8]: +
- carbon source utilization [9]: +
- carbon source utilization [10]: +

SMILES: C[C@H](O)[C@@H](N)C(=O)O [D-threonine]
- carbon source utilization [1]: −
- carbon source utilization [2]: −
- carbon source utilization [3]: −
- carbon source utilization [4]: −
- carbon source utilization [5]: −
- carbon source utilization [6]: −
- carbon source utilization [7]: −
- carbon source utilization [8]: −
- carbon source utilization [9]: −
- carbon source utilization [10]: −

SMILES: C[C@H](O)[C@@H](O)[C@@H](O)[C@H](O)C=O [L-fucose]
- carbon source utilization [1]: +
- carbon source utilization [2]: +
- carbon source utilization [3]: +
- carbon source utilization [4]: +
- carbon source utilization [5]: +
- carbon source utilization [6]: +
- carbon source utilization [7]: +
- carbon source utilization [8]: +
- carbon source utilization [9]: +
- carbon source utilization [10]: +

SMILES: O=C(O)CC(CC(=O)O)C(=O)O [Tricarballylic acid]
- carbon source utilization [1]: −
- carbon source utilization [2]: −
- carbon source utilization [3]: −
- carbon source utilization [4]: −
- carbon source utilization [5]: −
- carbon source utilization [6]: −
- carbon source utilization [7]: −
- carbon source utilization [8]: −
- carbon source utilization [9]: −
- carbon source utilization [10]: −

SMILES: NC(=O)C[C@H](N)C(=O)O [L-asparagine]
- carbon source utilization [1]: +
- carbon source utilization [2]: +
- carbon source utilization [3]: +
- carbon source utilization [4]: +
- carbon source utilization [5]: +
- carbon source utilization [6]: −
- carbon source utilization [7]: +
- carbon source utilization [8]: +
- carbon source utilization [9]: +
- carbon source utilization [10]: +

SMILES: OC[C@H]1O[C@@H](n2cnc3c(O)ncnc32)[C@H](O)[C@@H]1O [Inosine]
- carbon source utilization [1]: +
- carbon source utilization [2]: +
- carbon source utilization [3]: +
- carbon source utilization [4]: +
- carbon source utilization [5]: +
- carbon source utilization [6]: +
- carbon source utilization [7]: +
- carbon source utilization [8]: +
- carbon source utilization [9]: +
- carbon source utilization [10]: +

SMILES: C[C@H](N)C(=O)O [L-alanine]
- carbon source utilization [1]: +
- carbon source utilization [2]: +
- carbon source utilization [3]: +
- carbon source utilization [4]: +
- carbon source utilization [5]: +
- carbon source utilization [6]: +
- carbon source utilization [7]: +
- carbon source utilization [8]: +
- carbon source utilization [9]: +
- carbon source utilization [10]: +

SMILES: N[C@@H](CO)C(=O)O [L-serine]
- carbon source utilization [1]: +
- carbon source utilization [2]: +
- carbon source utilization [3]: +
- carbon source utilization [4]: +
- carbon source utilization [5]: +
- carbon source utilization [6]: +
- carbon source utilization [7]: +
- carbon source utilization [8]: +
- carbon source utilization [9]: +
- carbon source utilization [10]: +

SMILES: CCC(=O)C(=O)O [α-ketobutyric acid]
- carbon source utilization [1]: +
- carbon source utilization [2]: +
- carbon source utilization [3]: −
- carbon source utilization [4]: +
- carbon source utilization [6]: +
- carbon source utilization [7]: −
- carbon source utilization [8]: −
- carbon source utilization [9]: −
- carbon source utilization [10]: −

SMILES: O=C[C@H](O)[C@@H](O)[C@H](O)[C@H](O)COP(=O)(O)O [Glucose-6-phosphate]
- carbon source utilization [1]: +
- carbon source utilization [2]: +
- carbon source utilization [3]: +
- carbon source utilization [4]: +
- carbon source utilization [5]: +
- carbon source utilization [6]: +
- carbon source utilization [7]: +
- carbon source utilization [8]: +
- carbon source utilization [9]: +
- carbon source utilization [10]: +

SMILES: CCC(O)C(=O)O (stereo not drawn) [α-hydroxy butyric acid]
- carbon source utilization [1]: +
- carbon source utilization [2]: +
- carbon source utilization [3]: +
- carbon source utilization [4]: +
- carbon source utilization [6]: +
- carbon source utilization [10]: −

SMILES: C[C@H](O)[C@H](O)[C@@H](O)[C@@H](O)C=O [L-rhamnose]
- carbon source utilization [1]: +
- carbon source utilization [2]: +
- carbon source utilization [3]: +
- carbon source utilization [4]: +
- carbon source utilization [5]: +
- carbon source utilization [6]: +
- carbon source utilization [7]: +
- carbon source utilization [9]: +
- carbon source utilization [10]: +

SMILES: CC(=O)N[C@H]1[C@@H](O)[C@H](O)[C@@H](CO)O[C@H]1O [N-acetyl-β-D-mannosamine]
- carbon source utilization [1]: −
- carbon source utilization [2]: −
- carbon source utilization [3]: +
- carbon source utilization [4]: −
- carbon source utilization [5]: +
- carbon source utilization [8]: +

SMILES: OC[C@H]1O[C@H](O)[C@H](O)[C@@H](O)[C@@H]1O [α-D-glucose]
- carbon source utilization [1]: +
- carbon source utilization [2]: +
- carbon source utilization [3]: +
- carbon source utilization [4]: +
- carbon source utilization [5]: +
- carbon source utilization [7]: +
- carbon source utilization [8]: +
- carbon source utilization [9]: +
- carbon source utilization [10]: +

SMILES: N[C@H](CO)C(=O)O [D-serine]
- carbon source utilization [1]: +
- carbon source utilization [2]: +
- carbon source utilization [3]: +
- carbon source utilization [4]: +
- carbon source utilization [6]: +
- carbon source utilization [7]: −
- carbon source utilization [10]: +

SMILES: C[C@@H](O)[C@H](N)C(=O)O [L-threonine]
- carbon source utilization [1]: −
- carbon source utilization [2]: −
- carbon source utilization [3]: +
- carbon source utilization [4]: +
- carbon source utilization [5]: −
- carbon source utilization [6]: −
- carbon source utilization [10]: −

SMILES: N[C@@H](CCC(=O)O)C(=O)O [L-glutamic acid]
- carbon source utilization [1]: −
- carbon source utilization [2]: −
- carbon source utilization [4]: +
- carbon source utilization [5]: −
- carbon source utilization [6]: −
- carbon source utilization [7]: +
- carbon source utilization [8]: +
- carbon source utilization [9]: +
- carbon source utilization [10]: −
